# Data taken from PubChem BioAssay AID1745853 (National Center for Advancing Translational Sciences (NCATS), 2022).
# Some of the results follow. The main result of the screen is listed elsewhere. These columns were measured beside it and carry no call.
# Legend:
# Test in all cases: Primary Screen for Target Class Profiling of Small Molecule Inhibitors of Methyltransferases
# [1] = target: Glycine N-methyltransferase (Homo sapiens) (UniProt Q14749); details: purified enzyme, MTase-Glo SAH luminescence; measured here: GNMT inhibition; at 40 µM; stronger effect = lower value
# Summary of the method: (§1)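 Each enzyme was reacted with SAM and its substrate, with compounds tested once at 40 uM; SAH formed was read by MTase-Glo luminescence.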
# [2] = target: Guanidinoacetate N-methyltransferase (Homo sapiens) (UniProt Q14353); details: purified enzyme, MTase-Glo SAH luminescence; measured here: GAMT inhibition; at 40 µM; stronger effect = lower value
# Summary of the method: as §1
# [3] = target: Histamine N-methyltransferase (Homo sapiens) (UniProt P50135); details: purified enzyme, MTase-Glo SAH luminescence; measured here: HNMT inhibition; at 40 µM; stronger effect = lower value
# Summary of the method: as §1
# [4] = target: Nicotinamide N-methyltransferase (Homo sapiens) (UniProt P40261); details: purified enzyme, MTase-Glo SAH luminescence; measured here: NNMT inhibition; at 40 µM; stronger effect = lower value
# Summary of the method: as §1
# [5] = target: Phenylethanolamine N-methyltransferase (Homo sapiens) (UniProt P11086); details: purified enzyme, MTase-Glo SAH luminescence; measured here: PNMT inhibition; at 40 µM; stronger effect = lower value
# Summary of the method: as §1
# % is scaled to controls: 0 for no effect and ±100 for the full control effect.
SMILES,"activity change, negative = inhibition [1] [%]","activity change, negative = inhibition [2] [%]","activity change, negative = inhibition [3] [%]","activity change, negative = inhibition [4] [%]","activity change, negative = inhibition [5] [%]"
C=C(CCO)C(=O)OCC1OCC(OC(=O)C(=C)CCO[C@@H]2O[C@H](COC(=O)C(=C)CCO[C@@H]3O[C@H](CO)[C@@H](O)[C@H](O)[C@H]3O)[C@@H](O)[C@H](O)[C@H]2O)C(O)C1O (stereo not given in full),0,-5.5,-2.05,-15.1,0.391
COc1ccc(CNc2nc3c(S(=O)(=O)c4ccccc4)nnn3c3ccccc23)cc1,-4.4,0,1.68,-4.89,-4
CCOC(=O)c1ncn2c1CN(C)C(=O)c1cc(F)ccc1-2,6.75,13.6,8.85,-2.73,4.9
O=NN(CCCl)C(=O)NCCCl,3.79,14.7,7.76,1.63,8.27
C[C@@H](N)C1CCC(C(=O)Nc2ccncc2)CC1 (stereo not given in full),2.34,12.1,12,-6.3,-1.18
NCC(O)(CS(=O)(=O)O)c1ccc(Cl)cc1 (stereo not given),-10.8,4.68,-0.246,-4.41,6.31
CC[C@H](NC(=O)c1c(C)c(-c2ccccc2)nc2ccccc12)c1ccccc1,-2.65,13.3,9.43,-4.47,0.926
COc1ccc(S(=O)(=O)N2CCC(n3c(=O)[nH]c4ccccc43)CC2)cc1,-7.84,-48.6,1.41,7.79,-15.3
CCCn1c(=O)c2ccc(C(=O)NC3CCCC3)cc2n2c(=O)n(Cc3cccc(F)c3)nc12,-0.814,5.1,-1.61,-2.8,-3.01
COc1ccc(C(=O)N2CCOC[C@H](Oc3cccnc3)C2)cc1,-3.59,-4.29,-1.02,-1.14,0.948
O=C(c1nccc2ccccc12)N1CCC2(CC1)CC(O)CCO2 (stereo not given),-4.39,-2.71,-4.33,-7.58,-12.9
COc1ccc(CCNC(=O)c2c(C)noc2-c2cccs2)cc1OC,-2.39,-3.45,-0.507,-20.4,-3.75
CC(C)NS(=O)(=O)c1ccc2c(c1)nc(-c1ccc(CO)o1)n2C(C)C,-4.38,1.7,0.258,-1.39,4.06
COCCCNC(=O)C1(C)Cn2nc(-c3ccccc3)cc2C(=O)N1Cc1ccc(F)cc1 (stereo not given),-5.08,-1.19,-3.75,-6.85,-7.63
Cc1ccc(Cl)cc1N1C(=O)c2cc3occc3n2CC1(C)C(=O)NC1CCCCCC1 (stereo not given),-1.71,0,-7.36,-5.83,0.801
O=C1CC2(CCN(CC3CCCCC3)CC2)Oc2ccccc2N1c1ccccc1,-0.764,2.08,-4.02,-2.49,8.16
CC(C)Oc1ccc(CN2C(=O)c3cc(C(C)(C)C)nn3CC2(C)C(=O)NC2CCCCC2)cc1 (stereo not given),-0.541,-0.87,1.76,4.61,-1.54
CC(=O)OC1CC2(C)C3=CCC4(C)C5C(O)C(O)C(C(C)C)C5(C)CCC4(C)C3CCC2C(C)(C)C1OC1OC(CO)C(O)C(O)C1O (stereo not given),4.15,19.6,10.6,3.82,3.72
CC(C(=O)O)c1cccc(C(=O)c2ccccc2)c1 (stereo not given),2.21,9.77,4.39,-3.5,8.79

SMILES,"activity change, negative = inhibition [1] [%]","activity change, negative = inhibition [2] [%]","activity change, negative = inhibition [3] [%]","activity change, negative = inhibition [4] [%]","activity change, negative = inhibition [5] [%]"
O=C1CCCN1c1ccc(CN2CC(=O)N(Cc3cccc(F)c3)c3ccccc3S2(=O)=O)cc1,-0.436,4.92,7.06,1.22,0.233
CC(O)(CC(=O)O)CC(=O)O[C@@H]1[C@@H](O)[C@H](OCCc2ccccc2)O[C@H](CO)[C@H]1O (stereo not given in full),4.6,4.77,4.88,-8.35,-1.13
O=C(CCC1CCCN(Cc2ccc(-c3ccccc3)cc2)C1)N1CCOCC1 (stereo not given),-5.06,-7.65,-4.54,-8.2,-5.29
CC(C)CCn1c(=O)c2ccc(C(=O)NC3CCCC3)cc2n2c(=O)n(CC(=O)NC(C)C)nc12,3.9,0,8.28,4.25,0.665
Cc1ccc(NC(=O)Cn2c(=O)oc3cc(S(=O)(=O)N4CCCC4)ccc32)c(C)c1,-1.73,6.87,7.24,5.09,-0.787
COc1ccc(-c2cc3n(n2)CC(C)(C(=O)NC2CCCCC2)N(C2CCCC2)C3=O)cc1 (stereo not given),-7.94,-2.72,-11.6,-13,-3.67
Cc1ccccc1CCNC(=O)Cn1ccc2cc(S(=O)(=O)N3CCCC3)ccc21,3.4,0.605,0.165,4.61,-15.3
O=S(=O)(c1ccccc1)c1nnn2c1nc(N1CCN(c3ccccn3)CC1)c1cc(Cl)ccc12,2.5,-0.923,-5.28,1.33,-3.75
COCC(=O)N[C@H]1C[C@@H](CO)N(Cc2ccc(Br)o2)C1,-4.77,-4.51,-1.88,-6.87,-7.07
CC(C)C[C@@H](C(=O)N[C@@H](Cc1ccc(OCc2ccccc2)cc1)C(=O)NC(C)(C)C)N(C)Cc1ccc(C(C)(C)C)cc1,4.49,-22.4,-3.17,-35.5,-19.8
COCCN1CC2CN(C(=O)c3ccc(Cc4c(C)noc4C)o3)CC(C1)O2,-3.61,-1.03,-2.81,-2.9,4.22
CC1(C(=O)NC2CCCCCCC2)Cn2c(ccc2-c2ccccc2)C(=O)N1Cc1ccccc1 (stereo not given),-0.493,2.16,-5.34,-7.7,-5.79
CCCn1c(=O)c2ccccc2n2c(SCC(=O)NCc3ccc(C)cc3)nnc12,3.48,0,0.733,1.73,0.931
CC(=O)O[C@@H]1CC2C(C)(C)C(=O)C=C[C@]2(C)C2CC[C@@]3(C)[C@H](c4ccoc4)OC(=O)[C@H]4O[C@]43[C@@]21C (stereo not given in full),-2.1,4.26,7.9,-10.7,6.56
CC(=O)Nc1c2n(c3ccccc13)CC(C)(C(=O)NC1CCCCCC1)N(Cc1ccccc1)C2=O (stereo not given),1.41,0,3.23,2.29,3.03
CCCn1c(=O)c2ccc(Cl)cc2n2c(=O)n(CC(=O)Nc3ccccc3F)nc12,-1.35,2.38,4.07,-4.42,1.31
Cc1nnc(-c2cc(-c3ccsc3)ccn2)n1-c1ccccc1,-15.6,-0.292,-19.1,-23.9,-13.6
O=C(NCc1nnc2c(-c3nc(C4CC4)no3)cccn12)C1CC1,-1.68,-3.14,-0.72,-2.87,-4.49
COc1cccc(C(C)N(C)Cc2nc(-c3cccs3)no2)c1 (stereo not given),-1.63,-0.734,0.945,-5.03,10.4
